Among all 1,300 compounds or so, about 30 (2%) were called active. This list was built around the results that the source calls inconclusive (neither active nor inactive); the mix of calls is not that of the screen. Calls follow the shape of the dose curve; as a rule, active = well fitted inhibition curve with a large enough effect; inconclusive = small, poorly fitted or top-dose-only effect; inactive = flat fitted curve, though single readings scatter. Potencies of inconclusive entries are doubtful fits and often do not repeat.
Test: qHTS for antagonists of the Thyroid Stimulation Hormone Receptor: Hit Validation in HTRF Activity in a Luteinizing Hormone Receptor Cell Line
Conditions: LHR-expressing cell line, cAMP HTRF, antagonist mode; activity change, negative = inhibition: at the top concentration
Source text: The thyroid-stimulating hormone receptor (TSHR) is a member of the 7 trans-membrane-spanning receptor (7TMR) family of cell surface receptors. TSHR-mediated hyperthyroidism is important in thyroid pathology. The development of small molecule antagonists of TSHR may lead to therapeutic approaches for TSHR-mediated hyperthyroidism caused by constitutively activating mutations or stimulating auto-antibodies associated with Graves' disease. Graves' disease is the leading cause of hyperthyroidism and is caused by autoantibodies that stimulate TSHR (TsAbs) causing thyroid growth and unregulated overproduction of thyroid hormones and existing treatments have liabilities (agranulocytosis). In addition, TSHRs are known to be expressed in multiple extrathyroidal tissues including bone, brain, kidney, testis, fat and cells of the immune system but the role of the TSHR in these tissues is not clear. Therefore, TSHR antagonists/inverse agonists could be used as probes of extrathyroidal TSHR function. Finally, TSHR inverse agonists, which are a subclass of antagonists that inhibit agonist-independent (or basal or constitutive) TSHR signaling, could be used to inhibit TSH-independent signaling in patients with recurrent or metastatic thyroid cancer who are receiving thyroid hormone to suppress TSH.
In collaboration between scientist from the NCGC and the NIDDK, a miniaturized HTRF high-throughput screen was developed. It's a cell based assay, where an anti cAMP antibody contains a fluorescent cryptate tag (excitation 337 nm; emission 620 nm) and the acceptor is cAMP-d2 (excitation 620 nm; emission 665 nm). When antibody and cAMP-d2 interact and are excited by a 337 nm light, a FRET occurs resulting in emission at 665 nm. The assay is competition between cAMP-d2 and cAMP (from the cell lysate). The homogeneous protocol allows for one step dispense after stimulation that is automation friendly. In order to confirm specificity of the compounds to the TSHR, a confirmatory assay was conducted on a similar family member, the Luteinizing Hormone (LH) receptor, transfected into a HEK 293 cell line, using an orthogonal detection technology to measure cAMP stimulation: antibody-based Homogeneous Time Resolved Fluorescence (HTRF).
NIH Chemical Genomics Center [NCGC]
NIH Molecular Libraries Probe Centers Network [MLPCN]
Assay Provider: Marvin Gershengorn, NIDDK
Homogeneous Time Resolved Fluorescence (HTRF) cAMP Assay. HEK 293 cells stably transfected with a vector containing the LH receptor and maintained under hygromycin selection were obtained from the laboratory of Dr. Marvin Gershengorn. Compounds were assayed using a HTRF cAMP detection kit (Cisbio) on the LH receptor transfected cell line. Briefly, 750 cells were plated in 2.5 ul/well of complete media (DMEM containing 10 % FCS, and 100 uM RO 20-1724) in 1536 well solid bottom white plates and 23 nl/well compound in DMSO solution or controls was added. Following 30 minute incubation at room temperature, 2.5 ul/well of labeled d2 cAMP and 2.5 ul/well of anti-cAMP antibody (both diluted 1:20 in lysis buffer) were added to each well using a flying reagent dispenser (Aurora Discovery, San Diego) . Plates were measured using the Envision plate reader (PerkinElmer, Boston, MA) with excitation at 330 nm and emissions of 615 nm and 660 nm.
% is scaled to controls: 0 for no effect and ±100 for the full control effect; potency is read from the fitted curve at half-maximal effect; tags tell the direction and shape of the fitted curve.

Potency, active:
CCC(=O)NC1=C(Cl)C(=O)C(NC(=O)CC)=C(Cl)C1=O 30.1 µM
O=C1C(SCCO)=C(SCCO)C(=O)c2ccccc21 26.9 µM
COc1ccc(NC(=O)/C(Cl)=C(/Cl)S(=O)Cc2ccccc2Cl)cn1 (centres undefined) 37.9 µM

Potency, inconclusive:
COc1ccc(-c2nc(NC(=O)c3cc(C(C)(C)C)nn3C)sc2C)cc1 213 µM [inhibitor, partial curve, poor fit]
CS(=O)(=O)c1ncc(Cl)c(C(=O)Nc2ccc3ccccc3c2)n1 75.7 µM [inhibitor, partial curve, poor fit]
CCN=c1scc(-c2cccs2)n1/N=C/c1cc(OC)ccc1O 601 µM [inhibitor, partial curve, poor fit]
CC[n+]1ccc(/C=C/c2ccc(N(C)C)cc2)c2ccccc21 42.6 µM [inhibitor, partial curve]
Nc1ccccc1N=Cc1ccc(-c2cccc(Cl)c2)o1 67.5 µM [inhibitor, partial curve]
Cn1c(=O)c([N+](=O)[O-])c(Cl)c2ccccc21 75.7 µM [inhibitor, partial curve, poor fit]
Cc1cc(/C=C2\Sc3ccccc3N2C)cc(C)[n+]1CC1CCCO1 (centres undefined) 757 µM [inhibitor, partial curve, poor fit]
O=C(Cn1ncc(Cl)c(Cl)c1=O)N1CCN(S(=O)(=O)c2ccc3ccccc3c2)CC1 301 µM [inhibitor, partial curve, poor fit]
CCCCS(=O)(=O)/C=C\C=C/S(=O)(=O)CCCC 47.8 µM [inhibitor, partial curve]
O=[N+]([O-])c1c(NCCO)cc(Sc2nc3ccccc3s2)c2nonc12 75.7 µM [inhibitor, partial curve]
CC(C)C(c1nnnn1Cc1ccco1)N1CCN(c2nc3ccccc3s2)CC1 (centres undefined) 269 µM [inhibitor, partial curve, poor fit]
O=[N+]([O-])c1ccc(NC(=S)NCc2ccc(F)cc2)cc1 301 µM [inhibitor, partial curve, poor fit]
O=C(/C=C/c1cccc(Cl)c1)c1ccc([N+](=O)[O-])o1 100 µM [inhibitor, partial curve, poor fit]
Cc1cc(C(C)(C)C)oc1C(=O)N(CC(=O)NC1CCCC1)c1cccc(C(F)(F)F)c1 169 µM [inhibitor, partial curve, poor fit]
COc1ccc(C(=O)/C(=C\c2ccco2)N2C=CC=CC2=C(C#N)C#N)cc1 75.7 µM [inhibitor, partial curve]
CCCCN1C(=O)c2ccc(C(=O)Nc3ccc(C)c(S(=O)(=O)N(C)C)c3)cc2C1=O 169 µM [inhibitor, partial curve, poor fit]
CC1S/C(=N\N=C\c2cccc([N+](=O)[O-])c2)N(C(C)(C)C)C1=O (centres undefined) 301 µM [inhibitor, partial curve, poor fit]
CCN(CC)S(=O)(=O)c1cccc(C(=O)/C=C2/N(C)c3ccccc3C2(C)C)c1 269 µM [inhibitor, partial curve, poor fit]
Cc1ccc(Cl)cc1NC1=C/C(=N\S(=O)(=O)c2cccs2)c2ccccc2C1=O 169 µM [inhibitor, partial curve, poor fit]
O=C(CCSc1ccc(Cl)c(Cl)c1)NC12CC3CC(CC(C3)C1)C2 190 µM [inhibitor, partial curve, poor fit]
CC[n+]1c(/C=C/c2ccc(N(C)C)cc2)ccc2ccccc21 239 µM [inhibitor, partial curve, poor fit]
CC(=O)Nc1ccc(-c2csc(NC(=O)Nc3ccccc3)n2)cc1 75.7 µM [inhibitor, partial curve]
CCOC(=O)COc1ccccc1/C=C\[N+](=O)[O-] 67.5 µM [inhibitor, partial curve]
O=C(Nc1nc(-c2ccc(S(=O)(=O)N3CCOCC3)cc2)cs1)c1ccccc1 112 µM [inhibitor, partial curve, poor fit]
Cc1ccc(C)c(N2CCN(C(=O)CCCCCn3c(=S)[nH]c4ccc(N5CCOCC5)cc4c3=O)CC2)c1 75.7 µM [inhibitor, partial curve, poor fit]
COc1ccc(/C=C2\CC/C(=C\c3ccc(OC)c(OC)c3)C2=O)cc1OC 379 µM [inhibitor, partial curve, poor fit]
O=C(Nc1ccc(S(=O)(=O)N2CCCCC2)cc1)c1ccc(CN2CCOCC2)cc1 100 µM [inhibitor, partial curve, poor fit]
COc1cccc(CN(C)C(=O)CNC(=O)c2ccc(-c3ccccc3)cc2)c1OC 190 µM [inhibitor, partial curve, poor fit]
CCCC(=O)OCCNc1cc(Sc2nc3ccccc3[nH]2)c2nonc2c1[N+](=O)[O-] 379 µM [inhibitor, partial curve, poor fit]
C=CCn1c(SCC(=O)c2cccs2)nc2sc(CC)cc2c1=O 151 µM [inhibitor, partial curve]
O=C1CCCC2=C1C(c1ccsc1)CC(=O)N2c1nnc(SCc2ccccc2)s1 (centres undefined) 536 µM [inhibitor, partial curve, poor fit]
CCC(=O)OCCNc1cc(Sc2nccn2C)c2nonc2c1[N+](=O)[O-] 67.5 µM [inhibitor, partial curve]
Cc1ccccc1N/C(SCc1ccc(Cl)cc1)=C(/C#N)C(=O)NCc1ccco1 301 µM [inhibitor, partial curve, poor fit]
CN(C)S(=O)(=O)c1ccc(C(=O)Nc2nc(-c3cccs3)cs2)cc1 301 µM [inhibitor, partial curve, poor fit]
COC(=O)c1c(-c2ccc(SC)cc2)sc2ccccc12 849 µM [inhibitor, partial curve, poor fit]
COc1ccc(-c2csc(NC(=O)C3=NN(c4ccccc4)C(=O)CC3)n2)cc1 151 µM [inhibitor, partial curve, poor fit]
CCN(CC)S(=O)(=O)c1cc(NC(=O)C2CCN(c3ncnc4sc(C)c(C)c34)CC2)ccc1Cl 338 µM [inhibitor, partial curve, poor fit]
Cn1c(N=Nc2ccc(N3CCOCC3)cc2)[n+](C)c2ccccc21 169 µM [inhibitor, partial curve, poor fit]
Cc1ccc(-c2csc(NC(=O)c3ccc4c(=O)n5c(nc4c3)CCCCC5)n2)cc1 601 µM [inhibitor, partial curve, poor fit]
CC(NC(=O)/C(C#N)=C/c1ccc([N+](=O)[O-])o1)c1ccccc1 (centres undefined) 60.1 µM [inhibitor, partial curve]
COc1ccc(-c2nn(-c3ccccc3)cc2/C=N/NC(=O)c2ccc(Br)o2)cc1 84.9 µM [inhibitor, partial curve]
COc1cccc(C(=O)/C=C/Nc2ccc(S(=O)(=O)Nc3cccc(C(C)=O)c3)cc2)c1 169 µM [inhibitor, partial curve, poor fit]

Activity change, negative = inhibition, inactive:
Cc1ccc(CS(=O)(=O)c2ncc(Cl)c(C(=O)Nc3nnc(C(C)C)s3)n2)cc1 -6.84%
COc1cc(C(C(=O)NCc2ccccc2)N(C(=O)c2snc(C(N)=O)c2N)C2CCCC2)cc(OC)c1OC (centres undefined) -0.39%
Cc1c(N=Nc2c(-c3ccc([N+](=O)[O-])cc3)[nH]n(C(N)=S)c2=O)cccc1[N+](=O)[O-] 2.29%
CCCSc1nsc(NC(=O)Nc2ccc(F)cc2F)n1 -2.2%
CC(C)(C)C(=O)NC(NC(=S)Nc1sc2c(c1C#N)CCCC2)C(Cl)(Cl)Cl (centres undefined) 0.759%
COc1ccc(N2CCN(C(c3nnnn3CCc3ccccc3)C(C)C)CC2)cc1 (centres undefined) -0.511%
COc1ccc(/C=N/n2c(SC)nnc(C(C)(C)C)c2=O)cc1 -0.342%
Cn1c2c(c(=O)[nH]c1=O)C(c1ccc(O)cc1)C1=C(N2)c2ccccc2C1=O (centres undefined) -0.454%
COc1ccc(CNC(=O)C(C)OC(=O)c2cccs2)cc1 (centres undefined) -2.06%
COC(=O)CCN(Cc1cc(OC)ccc1OC)S(=O)(=O)c1ccccc1Br 1.58%
CCOC(=O)Cc1csc(NC(=O)COc2ccc(N(C)S(=O)(=O)c3cccs3)cc2)n1 -4.36%
CC(=O)c1ccc(N(C(=O)CNC(=O)c2ccco2)C(C(=O)NC2CCCC2)c2ccncc2)cc1 (centres undefined) -0.321%
COc1ccccc1CNC(=O)CSc1nc(N)c(C#N)c(-c2cccs2)c1C#N -0.0637%
Cc1csc(NC(=O)c2cc3c(C)nn(Cc4ccccc4Cl)c3s2)n1 -3.84%
CCOC(=O)c1ccc(NC(=O)c2nc(S(=O)(=O)Cc3ccccc3)ncc2Cl)cc1 -2.38%
COc1ccccc1NS(=O)(=O)c1cccc(NC(=O)c2ccc3ccccc3n2)c1 -1.31%
CCn1c(=NC(=O)CSC(C)=O)sc2cc(OC)ccc21 -1.89%
CCCCNC(=O)c1sc(=S)n2c1[nH]c(=O)c1ccccc12 -0.118%
N#C/C(=N\Nc1ccc(Cl)c(Cl)c1)C(=O)C1CC1 -0.632%

— PubChem BioAssay AID602293 (National Center for Advancing Translational Sciences (NCATS), 2012)
